In patent publication US20220275048A1 (PHARCHOICE THERAPEUTICS, published 2022):

Tests used:
Test in all cases: SPR, Biacore T100
[1] = biological target: T1, mouse CD155 (mouse)
T1 construct: The construct used in the Biacore assay is not described
Source text: (§1) Biacore T100 (GE Healthcare) was used to detect the affinity of each immunoadhesin according to the method in the literature (Bruhns P. et al. Blood, 2009, 113(16): 3716-3725).

[2] = biological target: T2, human CD155 (human, UniProt P15151 21-343, limits assumed)
T2 construct: The construct used in the Biacore assay is not described
T2 sequence (looked up): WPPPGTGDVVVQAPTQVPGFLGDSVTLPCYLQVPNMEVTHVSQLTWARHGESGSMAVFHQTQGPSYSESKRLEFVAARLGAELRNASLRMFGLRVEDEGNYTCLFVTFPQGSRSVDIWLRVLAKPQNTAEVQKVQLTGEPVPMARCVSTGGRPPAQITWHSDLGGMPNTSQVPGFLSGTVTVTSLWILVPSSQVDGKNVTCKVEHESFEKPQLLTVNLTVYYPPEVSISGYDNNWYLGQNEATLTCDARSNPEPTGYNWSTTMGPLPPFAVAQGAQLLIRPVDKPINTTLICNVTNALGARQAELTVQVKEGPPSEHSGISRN
Source text: as §1

[3] = biological target: T3, anti-IL 10
T3 construct: not described further
Source text: as §1

[4] = biological target: B7
Source text: as §1

B1: TIGIT-Fc-wt (Fc fusion)
chain: MMTGTIETTGNISAEKGGSIILQCHLSSTTAQVTQVNWEQQDQLLAICNADLGWHISPSFKDRVAPGPGLGLTLQSLTVNDTGEYFCIYHTYPDGTYTGRIFLEVLESSVAEHGARFQIP[sequence of human IgG1 Fc not given]
notes: also called human TIGIT immunoadhesin
Question: For B1, which Kd [1] is on record?
Answer: Its Kd is 2.07 nM.

Question: What about the Kd [2] of the same binder?
Answer: The Kd was 1.55 nM.

B2: TIGIT-Fc-LALA-PG (Fc fusion)
chain: MMTGTIETTGNISAEKGGSIILQCHLSSTTAQVTQVNWEQQDQLLAICNADLGWHISPSFKDRVAPGPGLGLTLQSLTVNDTGEYFCIYHTYPDGTYTGRIFLEVLESSVAEHGARFQIP[sequence of human IgG1 Fc with changes not given]
notes: also called LALA-PG variant of human TIGIT immunoadhesin
Question: B2 was tested. Which Kd [1] did it give?
Answer: Its Kd is 2.15 nM.

Question: What about the Kd [2] of the same binder?
Answer: Its Kd is 1.84 nM.

B3: TIGIT/IL10-Fc (Fc fusion)
chain 1: MMTGTIETTGNISAEKGGSIILQCHLSSTTAQVTQVNWEQQDQLLAICNADLGWHISPSFKDRVAPGPGLGLTLQSLTVNDTGEYFCIYHTYPDGTYTGRIFLEVLESSVAEHGARFQIP[sequence of human IgG1 Fc with changes not given]
chain 2: SPGQGTQSENSCTHFPGNLPNMLRDLRDAFSRVKTFFQMKDQLDNLLLKESLLEDFKGYLGCQALSEMIQFYLEEVMPQAENQDPDIKAHVNSLGENLKTLRLRLRRCHRFLPCENKSKAVEQVKNAFNKLQEKGIYKAMSEFDIFINYIEAYMTMKIRN[sequence of human IgG1 Fc with changes not given]
Question: For B3, which Kd [3] is on record?
Answer: The Kd was 0.91 nM.

Question: And the Kd [1]?
Answer: The Kd was 3.21 nM.

Question: What about the Kd [2] of the same binder?
Answer: Its Kd is 2.41 nM.

B4: TIGIT/CTLA4-Fc (Fc fusion)
chain 1: MMTGTIETTGNISAEKGGSIILQCHLSSTTAQVTQVNWEQQDQLLAICNADLGWHISPSFKDRVAPGPGLGLTLQSLTVNDTGEYFCIYHTYPDGTYTGRIFLEVLESSVAEHGARFQIP[sequence of human IgG1 Fc with changes not given]
chain 2: [sequence of about 350 residues with a human IgG1 Fc not given]
Question: Which Kd [4] does the source give for B4 here?
Answer: Its Kd is 2.51 nM.

Question: And the Kd [1]?
Answer: The Kd was 3.55 nM.

Question: What about the Kd [2] of the same binder?
Answer: The Kd was 2.39 nM.
